PubChem BioAssay AID1768 (National Center for Advancing Translational Sciences (NCATS), 2009)
Values joined by “and” are separate entries in the source; they are usually repeats but may differ in a detail not shown here. Identical values can stand only once. Hit rate of the full screen: of about 270,000 compounds, about 620 (0.23%) were called active. The shares of active, inactive and inconclusive entries below differ from those in the screen. The call rests on the fitted dose curve; in most records, active means well fitted inhibition curve with a large enough effect in the polarisation, with a control signal flat (not every such curve was filed as active); inconclusive means small, poorly fitted or top-dose-only effect, or effect the other way, or a change in a side signal; inactive means no such curve, though single readings can be large or run the other way; the % refers to the polarisation. A potency beside an inconclusive call is a rough fit, not a confirmed value. “Side channel” marks fits to a control or component signal instead of the main read-out.

Each compound was assayed against Menin (Homo sapiens) (UniProt O00255) (assay: qHTS Assay for Inhibitors Targeting the Menin-MLL Interaction in MLL Related Leukemias: Competition With Texas Red Labeled MLL-derived Mutant Peptide). Conditions: fluorescence polarization; FP activity change, negative = inhibition: at 61.6 µM (top of the series).
Chain of UniProt O00255 (O00255 whole entry, looked up): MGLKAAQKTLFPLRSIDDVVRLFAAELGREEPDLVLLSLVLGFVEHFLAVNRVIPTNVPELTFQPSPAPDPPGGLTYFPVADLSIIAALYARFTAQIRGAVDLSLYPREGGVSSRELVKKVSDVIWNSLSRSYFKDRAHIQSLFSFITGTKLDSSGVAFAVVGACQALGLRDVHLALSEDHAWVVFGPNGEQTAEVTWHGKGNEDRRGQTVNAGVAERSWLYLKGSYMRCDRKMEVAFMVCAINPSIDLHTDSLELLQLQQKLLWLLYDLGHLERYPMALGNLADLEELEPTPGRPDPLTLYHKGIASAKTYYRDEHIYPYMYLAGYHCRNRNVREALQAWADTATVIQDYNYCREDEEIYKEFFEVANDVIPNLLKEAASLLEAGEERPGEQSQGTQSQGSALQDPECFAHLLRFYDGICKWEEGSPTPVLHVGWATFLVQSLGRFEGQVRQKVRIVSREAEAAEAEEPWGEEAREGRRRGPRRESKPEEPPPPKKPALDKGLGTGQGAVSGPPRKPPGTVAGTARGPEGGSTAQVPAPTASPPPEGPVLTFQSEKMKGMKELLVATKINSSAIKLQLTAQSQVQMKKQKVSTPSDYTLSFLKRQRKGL
Potency means the concentration at half of the fitted maximal effect; tags describe the fitted curve by direction and shape or compound fluorescence and quenching.
Wherever FP activity change, negative = inhibition is given: % of control where 0% means no effect.

| Structure (SMILES) | Potency | FP activity change, negative = inhibition |
| --- | --- | --- |
| CCOC(=O)c1c(NC(=O)c2nn(C)cc2[N+](=O)[O-])sc(C)c1C | inconclusive: 28.2 µM [fluorescent, side channel, single point] | – |
| CN(C(=O)CN1CCN(c2ccccc2F)CC1)C1CCCc2ccccc21 (stereo not given) | inconclusive: 11.2 µM [inhibitor, partial curve] | – |
| NS(=O)(=O)c1ccc(CCNc2nc3c(-c4cccc(F)c4)nnn3c3ccccc23)cc1 | inconclusive: 8.91 µM [quencher, side channel, partial curve] | – |
| Cc1ccccc1Cn1c(=O)n(CCC(=O)NCc2ccc3c(c2)OCO3)c(=O)c2ccccc21 | inconclusive: 35.5 µM [fluorescent, side channel, single point] | – |
| COc1ccc(-n2c(=O)c(-c3cccs3)nc3cncnc32)cc1 | inconclusive: 17.8 µM [inhibitor, partial curve] | – |
| O=C(COC(=O)c1c2ccccc2cc2ccccc12)NCC(F)(F)F | inconclusive: 39.8 µM [quencher, side channel, single point] | – |
| Cc1ccc(SCCC(=O)Nc2ccc(OCc3ccccc3)cc2)cc1 | inconclusive: 39.8 µM [fluorescent, side channel, single point] | – |
| Cc1ccc(C)c2[nH]c(=O)c(C(c3nnnn3CCc3ccccc3)N3CCOCC3)cc12 (stereo not given) | – | inactive: -12% |
| COc1cc(OC)c2c(O)c3c(c(-c4c5c(c(O)c6c(OC)cc(OC)cc46)CO[C@@H](C)[C@H]5O)c2c1)[C@H](O)[C@H](C)OC3 | inconclusive: 17.8 µM [quencher, side channel, partial curve] | – |
| CCOC(=O)c1cnc(-c2ccccc2)nc1N1CC(C)OC(C)C1 (stereo not given) | inconclusive: 31.6 µM [fluorescent, side channel, single point] | – |
| Fc1ccccc1CNC(=S)NCc1ccc(Cl)cc1 | inconclusive: 25.1 µM [quencher, side channel, single point] | – |
| COc1cccc(NC(=O)CN2C(=O)CSc3nc(C)cc(C)c32)c1 | – | inactive: 4.2% |
| O=C(CCS(=O)(=O)c1ccccc1)Nc1ncc([N+](=O)[O-])s1 | inconclusive: 31.6 µM [quencher, side channel, single point] | – |
| COc1ccc(N2CCN(C(=O)C3CCN(C(=O)c4cccc(Cl)c4)CC3)CC2)cc1 | – | inactive: -9.85% |
| CC(C)C(=O)OC/C(O)=C(\C#N)c1nc2ccccc2[nH]1 | inconclusive: 28.2 µM [quencher, side channel, single point] | – |
| COc1ccc(-c2noc(CCC(=O)Nc3cc(Cl)c(OC)cc3OC)n2)cc1 | inconclusive: 31.6 µM [quencher, side channel, single point] | – |
| CCCCC(=O)OCCNC(=O)c1cc2ccccc2oc1=O | – | inactive: 7.04% |
| CCOc1ccc(Nc2nc3cc(S(=O)(=O)N(CC)CC)ccc3o2)cc1 | inconclusive: 11.2 µM [quencher, side channel, partial curve] | – |
| C=C(C)C(=O)/C=C/CCC/C=C/C(=O)OCC | – | inactive: -2.55% |
| O=C1C2C3C=CC(C4CC34)C2C(=O)N1/N=C/c1ccc(-c2cccc([N+](=O)[O-])c2)o1 (stereo not given) | inconclusive: 25.1 µM [quencher, side channel, single point] | – |

| Structure (SMILES) | Potency | FP activity change, negative = inhibition |
| --- | --- | --- |
| O=C(CN1CCN(Cc2ccccc2)CC1)NCCc1ccccc1 | – | inactive: -23% |
| Cc1ccc2c(c1)c1c3n2CCN(C(=O)CCl)C3CCC1 (stereo not given) | inconclusive: 31.6 µM [inhibitor, partial curve] | – |
| Cc1cccc(NC(c2ccc(O)cc2)c2ccc3ccc(C)nc3c2O)n1 (stereo not given) | – | inactive: 2.64% |
| COc1ccc(-c2noc(CNC(=O)Nc3ccc(F)cc3)n2)cc1 | inconclusive: 22.4 µM [quencher, single point] | – |
| O=C(CN1C(=O)/C(=C/c2ccccc2)SC1=S)Nc1cccnc1 | inconclusive: 25.1 µM [quencher, side channel, partial curve] | – |
| O=C(C1CCC(=O)N(C2CCCC2)C1)N1CCN(Cc2cccc(F)c2)CC1 (stereo not given) | inconclusive: 2.51 µM [inhibitor, full curve, poor fit] | – |
| Oc1c(Cl)cc(Cl)c(Cl)c1Cc1c(O)c(Cl)cc(Cl)c1Cl | inconclusive: 35.5 µM [quencher, side channel, partial curve] and inconclusive: 15.8 µM [quencher, side channel, partial curve] | – |
| C=CCn1c2ccccc2c(=O)c2cc(C#Cc3ccsc3)ccc21 | inconclusive: 8.91 µM [inhibitor, partial curve] | – |
| CCCC/C(C)=N/NC(=O)Nc1ccccc1 | inconclusive: 2.82 µM [inhibitor, full curve, poor fit] | – |
| Cc1cc(NC(=O)CSc2nnc(C3CC3)n2-c2ccccc2)no1 | inconclusive: 4.47 µM [inhibitor, full curve, poor fit] | – |
| Cc1nc2cc(C(=O)OCC(=O)NC(C)C(C)C)ccc2n1-c1ccccc1 (stereo not given) | inconclusive: 1.58 µM [inhibitor, partial curve] | – |
| CCCCn1c(SCC(=O)N2CCOCC2)nnc1-c1cccs1 | inconclusive: 0.708 µM [inhibitor, full curve] | – |
| CCOC(=O)c1c(NC(=O)C2COc3ccccc3O2)sc2c1CC(C)(C)NC2(C)C (stereo not given) | inconclusive: 8.91 µM [inhibitor, partial curve] | – |
| COC(=O)c1cc(OC)c(OC)cc1NC(=O)CN1CCOCC1 | inconclusive: 39.8 µM [inhibitor, single point] | – |
| O=[N+]([O-])c1ccc(N2CCN(C(=S)Nc3cccc(F)c3)CC2)cc1 | inconclusive: 5.62 µM [quencher, side channel, partial curve] | – |
| O=C(O)C(S)[C@@H](S)C(=O)O (stereo not given in full) | inconclusive: 28.2 µM [quencher, side channel, partial curve] | – |
| CN(C(=O)c1cc2n(n1)C(C(F)(F)F)CC(c1ccco1)N2)c1ccccc1 (stereo not given) | inconclusive: 5.01 µM [inhibitor, single point] | – |
| CC(Oc1cccc(NC(=O)c2cccs2)c1)C(=O)c1ccccc1 (stereo not given) | inconclusive: 14.1 µM [quencher, side channel, partial curve] | – |
| O=C(NCc1ccccc1)N(Cc1cc2cc3c(cc2[nH]c1=O)OCCO3)CC1CCCO1 (stereo not given) | inconclusive: 22.4 µM [fluorescent, side channel, single point] | – |
| COc1ccc2nc3c(c([Si](C)(C)C(C)(C)C)c2c1)Cn1c-3cccc1=O | – | inactive: 13.6% |

| Structure (SMILES) | Potency | FP activity change, negative = inhibition |
| --- | --- | --- |
| Cc1c(N=Cc2ccncc2)c(=O)n(-c2ccccc2)n1C | – | inactive: 11.1% |
| O=C(Nc1ccc(Nc2ccccc2)cc1)Nc1ccccc1Cl | inconclusive: 15.8 µM [quencher, side channel, partial curve] | – |
| COc1cccc(-n2c(C)c3c(OC)cccc(=O)c3c2C)c1 | inconclusive: 39.8 µM [quencher, side channel, single point] | – |
| Cn1c(C(=O)O)cnc1Sc1ncc(C(F)(F)F)cc1Cl | inconclusive: 39.8 µM [inhibitor, single point] | – |
| CCOc1ccc2[nH]c(=O)c(C(c3nnnn3C3CCCCC3)N3CCN(CC)CC3)cc2c1 (stereo not given) | – | inactive: -18.2% |
| Cn1cc(Cl)cc(C(=O)Nc2ccccc2)c1=O | inconclusive: 28.2 µM [fluorescent, side channel, single point] | – |
| CC1CCCN(C(=O)c2sc3cc([N+](=O)[O-])ccc3c2Cl)C1 (stereo not given) | inconclusive: 10 µM [inhibitor, partial curve] | – |
| CCCc1cc(=O)oc2c(C)c(OC3CCCCC3=O)ccc12 (stereo not given) | inconclusive: 25.1 µM [fluorescent, side channel, partial curve] | – |
| CC(C)N1CCc2c(sc(NC(=O)c3ccc(S(=O)(=O)N4CCc5ccccc54)cc3)c2C(N)=O)C1 | inconclusive: 10 µM [quencher, side channel, partial curve] | – |
| N#Cc1c(N)n(Cc2ccccc2)c(=O)c2cc([N+](=O)[O-])ccc12 | inconclusive: 10 µM [quencher, side channel, partial curve] | – |
| COc1ccc(NC(=O)CC2C(=O)N(c3ccc(F)cc3)C(=S)N2NC(=O)c2ccc(Cl)cc2)cc1 (stereo not given) | inconclusive: 39.8 µM [fluorescent, single point] | – |
| Cc1ccccc1NC(=O)C(=O)NCCc1c[nH]c2ccccc12 | inconclusive: 31.6 µM [quencher, side channel, single point] | – |
| Cc1ccc2c(CN3CCCCC3)cc(=O)oc2c1C | inconclusive: 31.6 µM [fluorescent, side channel, partial curve] | – |
| Cn1ncc([N+](=O)[O-])c1C(=O)Nc1cccc(Cl)c1 | inconclusive: 28.2 µM [inhibitor, single point] | – |
| COC(=O)C1C(=O)C(C(=O)/C=C/c2ccco2)C(=O)CC1(C)C (stereo not given) | – | inactive: -0.102% |
| COc1ccccc1N1CCN(CC(O)COc2c(OC)cccc2OC)CC1 (stereo not given) | – | inactive: -16.5% |
| O=C(Nc1cccc(S(=O)(=O)N2CCOCC2)c1)c1cn(-c2ccccc2)nc1-c1ccc(F)cc1 | inconclusive: 6.31 µM [quencher, side channel, partial curve] | – |
| Cc1cc(C)cc(N=C2NC(=O)/C(=C/c3cccs3)S2)c1 | – | inactive: 1.35% |
| COc1ccccc1NC(=O)c1ccccc1NS(=O)(=O)c1cccs1 | inconclusive: 28.2 µM [quencher, side channel, single point] | – |
| Cc1cccc(NC(=O)c2cc(-c3ccco3)nc3ccccc23)n1 | – | inactive: 11% |
